Reference: publication PMC5522996, “Big conductance calcium‐activated potassium channel openers control spasticity without sedation” (British Journal of Pharmacology, 2017)

Tested on: healthy humans
Assay: Phase I single dose: heart rate and blood pressure supine/standing

C[C@H](CO)NC(=O)c1cccc(/C=C\CCCC(=O)N(C)C)c1 [VSN16R]
Diastolic Blood Pressure Standing (25mg, 30min): 75 ± 6 mm Hg | Diastolic Blood Pressure Standing (25mg, 60min): 75 ± 7 mm Hg | Heart Rate Supine (25mg, 60min): 54 ± 9 bpm | Diastolic Blood Pressure Standing (800mg, 30min): 80 ± 9 mm Hg | Diastolic Blood Pressure Standing (800mg, 60min): 81 ± 10 mm Hg | Heart Rate Supine (800mg, 60min): 59 ± 6 bpm | Systolic Blood Pressure Standing (800mg, 60min): 120 ± 8 mm Hg
